# This is one part of the list.
# Experiments:
# Test in all cases: glycan array binding signal (z-score within array); higher = stronger binding
# Conditions in all cases: glycan notation: IUPAC condensed, linker removed
# [1] = target: GlcNAc(b1-3)Gal(b1-4)GlcNAc(b1-3)Gal(b1-4)GlcNAc(b1-3)GalNAc
# In short: (§1)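 From the Consortium for Functional Glycomics database, 3228 arrays were curated, keeping only those whose protein sequence was available. Binding is given as a within-array Z-score averaged across arrays sharing a protein sequence and across linkers. Negative Z-scores can be read as non-binding.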
# [2] = target: GlcNAc(b1-3)Gal(b1-4)GlcNAc(b1-3)GalNAc
# In short: as §1
# [3] = target: GlcNAc(b1-3)Gal(b1-4)GlcNAc(b1-3)[GlcNAc(b1-3)Gal(b1-4)GlcNAc(b1-3)]GalNAc
# In short: as §1
# [4] = target: GlcNAc(b1-3)Gal(b1-4)GlcNAc(b1-6)[Gal(b1-3)]GalNAc
# In short: as §1
# [5] = target: GlcNAc(b1-3)Gal(b1-4)GlcNAc(b1-6)[GlcNAc(b1-3)Gal(b1-3)]GalNAc
# In short: as §1
# [6] = target: GlcNAc(b1-3)Gal(b1-4)GlcNAc(b1-6)[GlcNAc(b1-3)]Gal(b1-4)GlcNAc
# In short: as §1
# [7] = target: GlcNAc(b1-3)GalNAc
# In short: as §1
# [8] = target: GlcNAc(b1-3)Man
# In short: as §1
# [9] = target: GlcNAc(b1-3)[GlcNAc(b1-4)][GlcNAc(b1-6)]GlcNAc
# In short: as §1
# [10] = target: GlcNAc(b1-3)[GlcNAc(b1-6)]Gal(b1-4)GlcNAc
# In short: as §1
# [11] = target: GlcNAc(b1-3)[GlcNAc(b1-6)]GalNAc
# In short: as §1
# [12] = target: GlcNAc(b1-4)Gal(b1-4)GlcNAc
# In short: as §1
# [13] = target: GlcNAc(b1-4)GlcNAc
# In short: as §1
# [14] = target: GlcNAc(b1-4)GlcNAc(b1-4)GlcNAc
# In short: as §1
# [15] = target: GlcNAc(b1-4)GlcNAc(b1-4)GlcNAc(b1-4)GlcNAc(b1-4)GlcNAc
# In short: as §1
# [16] = target: GlcNAc(b1-4)GlcNAc(b1-4)GlcNAc(b1-4)GlcNAc(b1-4)GlcNAc(b1-4)GlcNAc
# In short: as §1
# [17] = target: GlcNAc(b1-4)[GlcNAc(b1-6)]GalNAc
# In short: as §1
# [18] = target: GlcNAc(b1-6)Gal(b1-4)GlcNAc
# In short: as §1
# [19] = target: GlcNAc(b1-6)GalNAc
# In short: as §1
# [20] = target: GlcNAc3Prop(b1-4)GlcNAc
# In short: as §1
# [21] = target: GlcNAc6S(b1-3)Gal(b1-4)GlcNAc
# In short: as §1
# [22] = target: Kdn(a2-3)Gal(b1-3)GalNAc
# In short: as §1
# [23] = target: Kdn(a2-3)Gal(b1-3)GlcNAc
# In short: as §1
# [24] = target: Kdn(a2-3)Gal(b1-4)Glc
# In short: as §1
# [25] = target: Kdn(a2-3)Gal(b1-4)GlcNAc
# In short: as §1
# [26] = target: Kdn(a2-3)Gal(b1-4)[Fuc(a1-3)]GlcNAc
# In short: as §1
# [27] = target: Kdn(a2-6)Gal(b1-4)GlcNAc
# In short: as §1
# [28] = target: Man(a1-2)Man(a1-2)Man(a1-3)Man
# In short: as §1
# [29] = target: Man(a1-2)Man(a1-2)Man(a1-6)[Man(a1-3)]Man
# In short: as §1
# [30] = target: Man(a1-2)Man(a1-3)Man
# In short: as §1
# [31] = target: Man(a1-2)Man(a1-3)[Man(a1-2)Man(a1-6)]Man
# In short: as §1
# [32] = target: Man(a1-2)Man(a1-3)[Man(a1-2)Man(a1-6)]Man(a1-6)[Man(a1-2)Man(a1-2)Man(a1-3)]Man
# In short: as §1
# [33] = target: Man(a1-2)Man(a1-3)[Man(a1-2)Man(a1-6)]Man(a1-6)[Man(a1-2)Man(a1-2)Man(a1-3)]Man(b1-4)GlcNAc(b1-4)GlcNAc
# In short: as §1
# [34] = target: Man(a1-2)Man(a1-3)[Man(a1-6)]Man(a1-6)[Man(a1-2)Man(a1-3)]Man(b1-4)GlcNAc(b1-4)GlcNAc
# In short: as §1
# [35] = target: Man(a1-2)Man(a1-6)[Man(a1-3)]Man(a1-6)[Man(a1-2)Man(a1-2)Man(a1-3)]Man
# In short: as §1
# [36] = target: Man(a1-2)Man(a1-6)[Man(a1-3)]Man(a1-6)[Man(a1-2)Man(a1-2)Man(a1-3)]Man(b1-4)GlcNAc(b1-4)GlcNAc
# In short: as §1
# [37] = target: Man(a1-3)[Man(a1-6)]Man
# In short: as §1
# [38] = target: Man(a1-3)[Man(a1-6)]Man(a1-6)[Man(a1-2)Man(a1-3)]Man(b1-4)GlcNAc(b1-4)GlcNAc
# In short: as §1
# [39] = target: Man(a1-3)[Man(a1-6)]Man(a1-6)[Man(a1-3)]Man
# In short: as §1
# [40] = target: Man(a1-3)[Man(a1-6)]Man(a1-6)[Man(a1-3)]Man(b1-4)GlcNAc(b1-4)GlcNAc
# In short: as §1
# [41] = target: Man(a1-3)[Man(a1-6)]Man(b1-4)GlcNAc(b1-4)GlcNAc
# In short: as §1
# [42] = target: Man(a1-3)[Man(a1-6)]Man(b1-4)GlcNAc(b1-4)[Fuc(a1-6)]GlcNAc
# In short: as §1
# [43] = target: Man(a1-6)Man
# In short: as §1
# [44] = target: Man(b1-4)GlcNAc
# In short: as §1
# [45] = target: MurNAc(b1-4)GlcNAc
# In short: as §1
binder,measurement,setting,value
"rCNL (Clitocybe nebularis), B2ZRS9 (protein) SITPGTYNITNVAYTNRLIDLTGSNPAENTLIIGHHLNKTPSGYGNQQWTLVQLPHTTIYTMQAVNPQSYVRVRDDNLVDGAALVGSQQPTPVSIESAGNSGQFRIKIPNLGLALTLPSDANSTPIVLGEVDETSTNQLWAFESVSAV",glycan array binding signal (z-score),[1],-0.218
same,glycan array binding signal (z-score),[2],-0.22
same,glycan array binding signal (z-score),[3],-0.224
same,glycan array binding signal (z-score),[4],-0.216
same,glycan array binding signal (z-score),[5],-0.222
same,glycan array binding signal (z-score),[6],-0.22
same,glycan array binding signal (z-score),[7],-0.286
same,glycan array binding signal (z-score),[8],-0.301
same,glycan array binding signal (z-score),[9],-0.294
same,glycan array binding signal (z-score),[10],-0.053
same,glycan array binding signal (z-score),[11],-0.021
same,glycan array binding signal (z-score),[12],-0.297
same,glycan array binding signal (z-score),[13],-0.304
same,glycan array binding signal (z-score),[14],-0.302
same,glycan array binding signal (z-score),[15],-0.302
same,glycan array binding signal (z-score),[16],-0.303
same,glycan array binding signal (z-score),[17],-0.301
same,glycan array binding signal (z-score),[18],-0.299
same,glycan array binding signal (z-score),[19],-0.237
same,glycan array binding signal (z-score),[20],-0.367
same,glycan array binding signal (z-score),[21],-0.273
same,glycan array binding signal (z-score),[22],-0.289
same,glycan array binding signal (z-score),[23],-0.296
same,glycan array binding signal (z-score),[24],-0.301
same,glycan array binding signal (z-score),[25],-0.296
same,glycan array binding signal (z-score),[26],-0.278
same,glycan array binding signal (z-score),[27],-0.285
same,glycan array binding signal (z-score),[28],-0.306
same,glycan array binding signal (z-score),[29],-0.293
same,glycan array binding signal (z-score),[30],-0.309
same,glycan array binding signal (z-score),[31],-0.299
same,glycan array binding signal (z-score),[32],-0.314
same,glycan array binding signal (z-score),[33],-0.173
same,glycan array binding signal (z-score),[34],-0.308
same,glycan array binding signal (z-score),[35],-0.296
same,glycan array binding signal (z-score),[36],-0.302
same,glycan array binding signal (z-score),[37],-0.306
same,glycan array binding signal (z-score),[38],0.133
same,glycan array binding signal (z-score),[39],-0.296
same,glycan array binding signal (z-score),[40],-0.285
same,glycan array binding signal (z-score),[41],0.297
same,glycan array binding signal (z-score),[42],-0.218
same,glycan array binding signal (z-score),[43],-0.294
same,glycan array binding signal (z-score),[44],-0.298
same,glycan array binding signal (z-score),[45],-0.214
